PMC10668032
The other results are listed elsewhere or left out. At the low end of the ranking the order means little.

Each sequence was assayed against SIX1 homeodomain (reference allele) (UniProt Q15475) (assay: universal protein binding microarray). Conditions: Universal all-10-mer PBM (8x60K, AMADID 030236), 300 nM GST-tagged protein, Alexa Fluor 488 anti-GST; buffer, salt, pH and temperature not stated; high values mean tight binding; most listed sequences are background and not binding sites; double strand, one strand shown.
GCGTACCC showed a binding signal of 0.136 E-score. Work on GGGAAATA yielded a binding signal of 0.102 E-score. With CTCAGGAC the binding signal was 0.0375 E-score. CGCCGGGA was tested, and the binding signal was 0.0669 E-score. In the case of ATCGAAGC, the binding signal is reported as 0.0975 E-score. CCCTTAGA gave a binding signal of 0.0579 E-score. In the case of AAGTTGAT, the binding signal is reported as 0.122 E-score. GTACCTAC showed a binding signal of -0.23 E-score. For CAAATTAG, the binding signal was -0.227 E-score. Sequence CGATTACA has a binding signal of 0.0821 E-score. CCCCCAGG showed a binding signal of 0.158 E-score. Work on AATTCAGT yielded a binding signal of -0.11 E-score. CTAGGCTC gave a binding signal of -0.0798 E-score. Sequence CGGCGAGC has a binding signal of -0.0282 E-score. For CTAACGAA, the binding signal was -0.152 E-score. CTCAAACA gave a binding signal of -0.128 E-score. For AGGTGCCA, the binding signal was 0.00385 E-score. For GTACAGAA, the binding signal was -0.0664 E-score. Sequence CACTTCGC has a binding signal of -0.164 E-score. CGTTCTGA was tested, and the binding signal was -0.2 E-score. AGGCGTGA was tested, and the binding signal was -0.031 E-score. For AGTTCTAT, the binding signal was 0.034 E-score. ACCTATGC gave a binding signal of 0.00953 E-score. In the case of GTACTGAA, the binding signal is reported as -0.0539 E-score. With ATTCAGAG the binding signal was 0.0153 E-score. With AGGGTCTG the binding signal was -0.0871 E-score. CGCGGAAA gave a binding signal of -0.129 E-score. AGTTGCTA was tested, and the binding signal was -0.0653 E-score. For GCCTTGAA, the binding signal was -0.222 E-score. With TAGTTAGA the binding signal was 0.0126 E-score. CGGAACCA was tested, and the binding signal was -0.116 E-score. Sequence GTTAGGTA has a binding signal of 0.15 E-score. Work on GCGGGAAC yielded a binding signal of -0.173 E-score. AAGATCTC was tested, and the binding signal was 0.198 E-score. With CTATAATA the binding signal was 0.259 E-score. CCACCCGA showed a binding signal of 0.121 E-score. Sequence GGCTATTA has a binding signal of 0.0818 E-score. In the case of AGCAGGCC, the binding signal is reported as -0.264 E-score. In the case of GGAAGCCC, the binding signal is reported as 0.0155 E-score. In the case of GGCCGGGA, the binding signal is reported as 0.0104 E-score. For AACTTCCG, the binding signal was -0.172 E-score. For CCTCATCC, the binding signal was -0.0701 E-score. For CCAATTTA, the binding signal was -0.0104 E-score. With GCAGCCCA the binding signal was -0.106 E-score. For CGCCGTAC, the binding signal was 0.0141 E-score. Work on ATTAGCAC yielded a binding signal of -0.11 E-score. Sequence CCCGAGAC has a binding signal of 0.252 E-score. CCAAATGG showed a binding signal of -0.0617 E-score. GCTTTCCC showed a binding signal of -0.202 E-score. Sequence ACAGTCTA has a binding signal of -0.0471 E-score. With CAAAATCG the binding signal was -0.155 E-score. GGAGCACA was tested, and the binding signal was 0.0657 E-score. For ACGCTACC, the binding signal was -0.217 E-score. With AAAGTTTC the binding signal was -0.289 E-score. For TCGACCCA, the binding signal was -0.0638 E-score. AGCTATTC gave a binding signal of -0.0164 E-score. Sequence CGCCCGAC has a binding signal of 0.0241 E-score. Work on ACTCTACC yielded a binding signal of -0.0292 E-score. With CATCCTCG the binding signal was 0.00693 E-score. Sequence AAGCGAAC has a binding signal of -0.242 E-score. In the case of ATACTCTG, the binding signal is reported as 0.354 E-score. AGAGAAGC was tested, and the binding signal was -0.278 E-score. With AAGCAGTG the binding signal was -0.113 E-score. In the case of GCTGGCAA, the binding signal is reported as -0.209 E-score. CAACAGGC showed a binding signal of -0.297 E-score. Work on GTGACTAA yielded a binding signal of -0.0841 E-score. With CTGTTAGA the binding signal was -0.156 E-score. Sequence ACCAGCCC has a binding signal of -0.102 E-score. For CTGCCAAA, the binding signal was -0.197 E-score. In the case of GCCACTGA, the binding signal is reported as 0.0969 E-score. GATGCGGA was tested, and the binding signal was 0.199 E-score. With ACAAATAC the binding signal was 0.091 E-score. For GGATCCAC, the binding signal was 0.317 E-score. Work on ATTTCTGC yielded a binding signal of -0.175 E-score. With AATTCACA the binding signal was -0.158 E-score. Work on ATGTTGTA yielded a binding signal of -0.00761 E-score. ACACCCGG was tested, and the binding signal was 0.344 E-score. In the case of GCTCATTA, the binding signal is reported as 0.0741 E-score. In the case of AGAATTCG, the binding signal is reported as -0.193 E-score. With CCTTCCCC the binding signal was 0.0255 E-score. AACGGGCC gave a binding signal of -0.244 E-score. With TCATGGGA the binding signal was 0.153 E-score. Work on GGTACCGA yielded a binding signal of -0.235 E-score. With ATTGAGGA the binding signal was -0.0505 E-score. With CAAACAGA the binding signal was -0.0329 E-score. Work on TTTGAAAA yielded a binding signal of -0.236 E-score. ATCGCCCG showed a binding signal of 0.198 E-score. CCGCCCGC showed a binding signal of 0.0472 E-score. Sequence ACCTCAGA has a binding signal of -0.0606 E-score. In the case of CGCGACTC, the binding signal is reported as -0.0471 E-score. Work on CCAATGTC yielded a binding signal of -0.177 E-score. Work on CCAGGGCC yielded a binding signal of -0.141 E-score. With ACATGGCG the binding signal was -0.0137 E-score. Sequence ACGTTGTG has a binding signal of -0.151 E-score. In the case of GTGACACA, the binding signal is reported as 0.0363 E-score. ACTGACGC was tested, and the binding signal was -0.281 E-score. For ACATGCTG, the binding signal was -0.0537 E-score. CGCATGCG was tested, and the binding signal was -0.0556 E-score. With CTGACAAA the binding signal was -0.19 E-score. CCAAAAAG showed a binding signal of -0.254 E-score. Sequence CGGGACCC has a binding signal of -0.141 E-score. TCGTTAAA showed a binding signal of -0.217 E-score. ATGCGTCG was tested, and the binding signal was 0.0188 E-score. In the case of CATTATCC, the binding signal is reported as 0.326 E-score. For CGCCAACA, the binding signal was -0.0312 E-score. CTGACACC showed a binding signal of 0.468 E-score. AGGCTGTC gave a binding signal of -0.282 E-score. For AGCGAACC, the binding signal was -0.18 E-score. CGCTTCAG was tested, and the binding signal was -0.0378 E-score. CGCATGTC showed a binding signal of -0.154 E-score. For AGAGTACC, the binding signal was -0.135 E-score. ATGCGACG showed a binding signal of 0.103 E-score. GACATAGC gave a binding signal of 0.0494 E-score. CTGCGAAG was tested, and the binding signal was -0.222 E-score. Sequence GCAAGCAC has a binding signal of -0.33 E-score. Work on GCTTAACC yielded a binding signal of -0.134 E-score. For AGGACGCA, the binding signal was -0.259 E-score. Work on CAATAAGC yielded a binding signal of -0.0943 E-score. Sequence CGGACAGA has a binding signal of 0.0236 E-score. For AAGTCTCG, the binding signal was -0.0944 E-score. CACAATCG showed a binding signal of 0.00178 E-score. CACGAAGG was tested, and the binding signal was 0.0539 E-score. Work on CCTATCGC yielded a binding signal of 0.29 E-score. With ATTGTAGC the binding signal was 0.0709 E-score. Work on ACTTCTAC yielded a binding signal of -0.023 E-score. For CAAATGGC, the binding signal was -0.155 E-score. CACTCACA showed a binding signal of 0.0495 E-score. In the case of CCTGGTCG, the binding signal is reported as -0.0285 E-score. CATTTTAA gave a binding signal of -0.135 E-score. For CCACTCCC, the binding signal was 0.094 E-score. ATATAGTG was tested, and the binding signal was 0.291 E-score. AGACTAGC showed a binding signal of -0.245 E-score. With AGGGTCGG the binding signal was 0.0814 E-score. Sequence ACCTAGTG has a binding signal of 0.0223 E-score. AAACTTAG showed a binding signal of -0.244 E-score. Sequence AGTTTTCG has a binding signal of -0.191 E-score. Work on CGGTATCA yielded a binding signal of 0.485 E-score. With CCGCCGCC the binding signal was -0.0743 E-score. For AGTGGTGC, the binding signal was -0.213 E-score. GATTCGAC showed a binding signal of -0.131 E-score. Work on GTTCCCTA yielded a binding signal of -0.111 E-score. CATGTGGC showed a binding signal of -0.115 E-score. GGAGGGCC was tested, and the binding signal was -0.175 E-score. Work on CAATTGCA yielded a binding signal of -0.217 E-score. For AACGGCGC, the binding signal was -0.233 E-score. With TAGCGGCA the binding signal was 0.1 E-score. For AAGATGAT, the binding signal was 0.156 E-score. ACAATGTG showed a binding signal of -0.179 E-score. With ACGCACGT the binding signal was -0.0658 E-score. Work on ATCAGCAC yielded a binding signal of 0.105 E-score. In the case of ACACATTC, the binding signal is reported as -0.177 E-score. In the case of GCGGTAAA, the binding signal is reported as -0.129 E-score. AACACTGC was tested, and the binding signal was -0.25 E-score. CTGTCAGC showed a binding signal of -0.0915 E-score. With ATGGGGGC the binding signal was -0.288 E-score. In the case of AATAGAAC, the binding signal is reported as -0.105 E-score. In the case of CGCTCAGC, the binding signal is reported as -0.0797 E-score. For ACTATGCC, the binding signal was 0.00714 E-score. GTTTAAAA showed a binding signal of -0.156 E-score. ACGGTAGC gave a binding signal of -0.149 E-score. For AAGGCCTT, the binding signal was -0.419 E-score. For GGTTAACA, the binding signal was 0.0046 E-score. AGCGTAAA showed a binding signal of -0.165 E-score. ACTGAAAA showed a binding signal of -0.263 E-score. Work on CCTGAGTA yielded a binding signal of 0.114 E-score. For CGCTGTCC, the binding signal was -0.193 E-score. ACGAAGCT showed a binding signal of -0.139 E-score. ACTTGTTG gave a binding signal of -0.224 E-score. For CGGTTCGC, the binding signal was -0.0982 E-score. CATTAGCA was tested, and the binding signal was -0.0258 E-score. CCAATGCA was tested, and the binding signal was 0.00175 E-score. GAGTCGCC showed a binding signal of -0.151 E-score.
